Here are results for 83 variants from the RNAGym collection of RNA variant scans (doi:10.1093/nar/gkz1192).

The source gives no read counts; variants with many changes may rest on few reads.

Sequences and labels used below:
B1: CPEB3 Ribozyme (parent)
chain: UAACAGGGGGCCACAGCAGAAGCGUUCACGUCGCAGCCCCUGUCAGAUUCUGGUGAAUCUGCGAAUUCUGCUGUAUAUCUC

In this data set the parent is B1. Kind of data set: self-cleavage, relative activity (ratio to wild type); higher = more cleavage; in vitro, sequencing. Put shortly:
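After error-prone PCR and barcoding, CPEB3 ribozyme mutant libraries were transcribed with T7 RNA polymerase at 37°C for 5 hours, then given 15 min with DNase I before an EDTA stop, and they cleaved during both steps. Reverse transcription with template switching preceded Illumina sequencing. Relative activity divides a variant's cleaved/total read fraction by the unmutated ribozyme's. At least 5 reads were required per variant, and three batches were averaged.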
Consider A3U G36C U43C U69C, for which the self-cleavage stood at 0.07. As to A3G G7U U51C, the self-cleavage amounted to 0.57. Take A3G C34A U41A U76A: the self-cleavage amounted to 0.27. The same measure for A3G U25A U51A G63A A64G U72G U76G: 0.17. A3U A13G U41A: the self-cleavage amounted to 0.42. As for A3U A18C U25C U51A, the self-cleavage was 0.09. For A3U G7U U25C the value was 0.07; for A3U G8A G16A U78C, 0.54. The same measure for A3G U25C C29G A75G: 0.12; for A3U A47G G61A U66C U74C: 0.29. Turning to A3U G9U G33A A56U, the self-cleavage is 0.07. For the variant A3G U25C C29A, the self-cleavage is 0.53. The same measure for A3U C44U U66A U67C U72C: 0.1; for A3U A13G C23U U49C U72G: 0.05.

In the case of A3G U41A U58A C59A A64U, the self-cleavage was 0.14. On to A3U U31A U41A U54C U80C, for which the self-cleavage stood at 0.21.

In the case of A3G G9C A21G U51C, the self-cleavage came to 0.03.

On to A3G G24C A45G U51A, for which the self-cleavage was 0.18. In the case of A3G U26C A45U U74A U80C, the self-cleavage is 0.21. The same measure for A3G G8U A56U: 0.18; for A3G G33A U69A: 0.07; for A3G U25C U58C U78C: 0.1. The same measure for A3G U31A G63U: 0.81; for A3G U25C U60C: 0.42. For A3G U31A A64U the value was 0.13; for A3U C11G U72G U80C, 0.87. Turning to C4A A15G A20G C27U U41C A45G U51A, the self-cleavage came to 0.09. Take A3U C17U U49C: the self-cleavage turned out to be 0.27. The same measure for A3G G6A A35U U51A U67A U69A: 0.07; for A3U U25C A47G: 0.32; for A3G G22A U25C U58A U74A: 0.33.

Turning to A3U A57G U69C, the self-cleavage was determined as 0.8. Regarding A3U C12G A21C A47G U51C A75G, the self-cleavage was determined as 0.07. With A3G U49C U58G, the self-cleavage was 0.37. Turning to A3G G6A G19A, the self-cleavage stood at 0.09.

In the case of A3U A13U A18U A21G U49C, the self-cleavage was determined as 0.1. Consider A3U C12U U25C A35U A57U, for which the self-cleavage is 0.11.

Take A3U U54C U69A: the self-cleavage turned out to be 0.7. For A3U U69C U72C A77G the value was 0.45; for A3G U25C U26C A47G A64U U69G, 0.34; for A3U G24A A57G, 0.41. Turning to A3U A13G U26A U31A C34U U69G, the self-cleavage was 0.16. On to A3G G10A G30A A64G U74A, for which the self-cleavage came to 0.27. Take A3G U26A G30A U58C U78C: the self-cleavage is 0.09. The same measure for A3U A18U U72A: 0.3.

Take A3G U31C A47G U49G U72C U78C: the self-cleavage was 0.51. The same measure for A3G G9C G33C U51A C68U U69A A75G: 0.06. For A3G U54A U60C A64U the value was 0.32; for A3G G33A U54G A57G U60C U69C, 0.09; for A3G U41G A65G U72A U78C, 0.1. Consider A3G G9C A28G C62G, for which the self-cleavage is 0.31. For A3G U31A U48A U74C the value was 0.49; for A3U A5G A15G A47U A56G, 0.56; for A3G G7A A35G, 0.38.

As for A3G U26C A64U U80A, the self-cleavage was found to be 0. With A3G G24A A28G U43C A56G U80C, the self-cleavage turned out to be 0.12.

Take A3G G8A A20C A56U A75G: the self-cleavage came out at 0.2. For A3G U51A U66C the value was 0.11; for A3G G8A A18U G63A U66C U74C, 0.25; for A3U A18G A28G, 0.44. For the variant A3G U26C U31G U43A A65U, the self-cleavage was found to be 0.48. The same measure for A3U G30C U51A U74C U80C: 0.16; for A3G U26C C40U A47G A56U: 0.13; for A3G G33A C37U: 0.41. Turning to A3G G6A U26C G33A U54A A56G, the self-cleavage was found to be 0.04.

As to A3G G6A U41A C62U, the self-cleavage amounted to 0.06. For A3G U48C U74C the value was 0.91; for A3U A15C A35U U67A, 0.21; for A3G G30U G53A U60C U66C, 0.14. For A3U G6A U58A U67C U69A the value was 0.32; for A3G G7U A13G U31C A45C A57G A77G, 0.09. For A3G U41A A45U A65G U76C the value was 0.4. Regarding A3G C32U C38A A64G A77U, the self-cleavage turned out to be 0.06. Regarding A3G G9A G19U, the self-cleavage amounted to 0.41. The same measure for A3G C62A G63U U72A: 0.24; for A3G U26C A35G C50G: 0.94.

A3U A28G U41A U72A: the self-cleavage was determined as 0.12. The same measure for A3G U41C A64G U69A U78C: 0.34; for A3U U26C A28G U31A G33C U41A U54C: 0.07.

As to A3G U48C U67A, the self-cleavage is 0.35. For A3G G8A A65G the value was 0.09; for A3G U26C U41C C71G, 0.19. The same measure for A3U G7A U25A: 0.45.
